# A collection of fitness landscapes (doi:10.1016/j.celrep.2020.107928)
# In all, about 81,000 sequences were measured (“one-hybrid fitness for binding NBS DNA”: median about -0.1, highest 2% from about 0.36 on). The list shows a part of the results.
# B1: Caulobacter ParB omega fusion; a variant is named by its letters at X, in order, B8GW30 (parent)
# chain: MESVVVGEPGMSEGRRGLGRGLSALLGEVDAAPAQAPGEQLGGSREAPIEILQRNPDQPRRTFREEDLEDLSNSIREKGVLQPILVRPSPDTAGEYQIVAGERAWRAAQRAGLKTVPIMVRELDDLAVLEIGIIENVQRADLNVLEEALSYKVLMEKFERTQENIAQTIGKSXSHVANXMRLLXLPDEVQSYLVSGELTAXHARAIAAAADPVALAKQIIEGGLSVRETEALARKAPNLSAGKSKGGRPPRVKDTDTQALESDLSSVLGLDVSIDHRGSTGTLTITYATLEQLDDLCNRLTRGI
# Variants of: B1
# Assay: one-hybrid fitness for binding NBS DNA (the Noc-binding site; scaled: cognate 1, non-cognate 0); higher = stronger binding
# Conditions: with NBS DNA site
# Outline: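 Fitness here means the log change in variant-to-wild-type read ratio between plasmids sequenced before and after selection. That scale was set so cognate equals 1 and non-cognate equals 0. The selection was a bacterial one-hybrid screen of Caulobacter ParB libraries, four specificity codons randomised, in E. coli USO carrying a HIS3 reporter with the site 19 bp from the promoter, grown 48 hours at 37°C on M9-minus-histidine with 0.1 mM IPTG and 5 mM 3-AT.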
row,Variant,one-hybrid fitness for binding NBS DNA
1,QHFS,≤ 0.2
2,PTNW,≤ 0.2
3,RQNK,≤ 0.2
4,HFET,≤ 0.2
5,PLKK,≤ 0.2
6,HYKN,≤ 0.2
7,TGMW,≤ 0.2
8,HYYV,≤ 0.2
9,TLLE,≤ 0.2
10,HQIG,≤ 0.2
11,TEKC,≤ 0.2
12,LKES,≤ 0.2
13,QPVE,≤ 0.2
14,TLFT,≤ 0.2
15,TRMR,0.3
16,SGYY,≤ 0.2
17,PYKY,≤ 0.2
18,RHRI,≤ 0.2
19,RVFC,≤ 0.2
20,MHQC,≤ 0.2
21,NYFD,≤ 0.2
22,DWES,≤ 0.2
23,QQFR,0.491
24,YAHF,≤ 0.2
25,KPSP,≤ 0.2

row,Variant,one-hybrid fitness for binding NBS DNA
1,QERD,≤ 0.2
2,KEVF,≤ 0.2
3,LPPA,≤ 0.2
4,AIAL,≤ 0.2
5,SPAH,≤ 0.2
6,DHYR,≤ 0.2
7,ANGC,≤ 0.2
8,EAMG,≤ 0.2
9,GDHL,≤ 0.2
10,FEHR,≤ 0.2
11,EHNE,≤ 0.2
12,LTGW,≤ 0.2
13,MHDR,≤ 0.2
14,TYRA,≤ 0.2
15,AYLS,≤ 0.2
16,FRQY,≤ 0.2
17,SWFS,≤ 0.2
18,QVSC,≤ 0.2
19,HQSQ,≤ 0.2
20,QLWD,≤ 0.2
21,VSDY,≤ 0.2
22,YVVN,≤ 0.2
23,RIVD,≤ 0.2
24,ILHR,≤ 0.2
25,FACT,≤ 0.2

row,Variant,one-hybrid fitness for binding NBS DNA
1,MQAE,≤ 0.2
2,QQVM,≤ 0.2
3,IFPN,≤ 0.2
4,CRGF,≤ 0.2
5,KLEI,≤ 0.2
6,CMPR,≤ 0.2
7,AENV,≤ 0.2
8,LSIW,≤ 0.2
9,LTGC,≤ 0.2
10,DIEF,≤ 0.2
11,HTPD,≤ 0.2
12,GNET,≤ 0.2
13,WTYG,≤ 0.2
14,DQNE,≤ 0.2
15,VLWT,≤ 0.2
16,KYSR,≤ 0.2
17,PDPY,≤ 0.2
18,HVAG,≤ 0.2
19,MEIR,≤ 0.2
20,VFYS,≤ 0.2
21,TRGF,≤ 0.2
22,RAPT,≤ 0.2
23,DTCG,≤ 0.2
24,WLNS,≤ 0.2
25,PRNM,≤ 0.2

row,Variant,one-hybrid fitness for binding NBS DNA
1,IATS,≤ 0.2
2,LVYS,≤ 0.2
3,CMPS,≤ 0.2
4,EQST,≤ 0.2
5,GYQG,≤ 0.2
6,DAAP,≤ 0.2
7,CTNC,≤ 0.2
8,LLTN,≤ 0.2
9,HGRG,≤ 0.2
10,NNTT,≤ 0.2
11,SISI,≤ 0.2
12,RGTL,≤ 0.2
13,MRCR,≤ 0.2
14,DARF,≤ 0.2
15,PIMD,≤ 0.2
16,CKSM,≤ 0.2
17,LRMC,≤ 0.2
18,KSFS,≤ 0.2
19,IYQC,≤ 0.2
20,IMHT,≤ 0.2
21,DVAT,≤ 0.2
22,HHTI,≤ 0.2
23,GELT,≤ 0.2
24,WTHT,≤ 0.2
25,GYDP,≤ 0.2

row,Variant,one-hybrid fitness for binding NBS DNA
1,QTWF,≤ 0.2
2,WPSN,≤ 0.2
3,QHFG,≤ 0.2
4,THTC,≤ 0.2
5,AFSS,≤ 0.2
6,RQQN,≤ 0.2
7,RKHP,≤ 0.2
8,YSTT,≤ 0.2
9,EFTV,≤ 0.2
10,QWRT,≤ 0.2
11,PTNG,≤ 0.2
12,CCSS,≤ 0.2
13,VDDS,≤ 0.2
14,PSLV,≤ 0.2
15,FPST,≤ 0.2
16,SWYM,≤ 0.2
17,ASDI,≤ 0.2
18,ATRN,≤ 0.2
19,KSLV,≤ 0.2
20,RIMR,0.319
21,MSQI,≤ 0.2
22,SNKS,≤ 0.2
23,LGME,≤ 0.2
24,PARA,≤ 0.2
25,PYMS,≤ 0.2

row,Variant,one-hybrid fitness for binding NBS DNA
1,AKWT,≤ 0.2
2,GQHM,≤ 0.2
3,EAGT,≤ 0.2
4,WKYM,≤ 0.2
5,LAMS,≤ 0.2
6,PFGY,≤ 0.2
7,LWVI,≤ 0.2
8,HLVW,≤ 0.2
9,IPVT,≤ 0.2
10,DFLL,≤ 0.2
11,SVTR,≤ 0.2
12,NFCR,≤ 0.2
13,FPDL,≤ 0.2
14,NKFG,≤ 0.2
15,VNME,≤ 0.2
16,TVFI,≤ 0.2
17,RKWS,0.467
18,NEGC,≤ 0.2
19,RKEC,≤ 0.2
20,ATQL,≤ 0.2
21,SIWM,≤ 0.2
22,PTDV,≤ 0.2
23,QYGA,0.219
24,NRQY,≤ 0.2
25,PDEN,≤ 0.2

row,Variant,one-hybrid fitness for binding NBS DNA
1,VETA,≤ 0.2
2,KHQI,≤ 0.2
3,LFRN,≤ 0.2
4,PEGL,≤ 0.2
5,DMEL,≤ 0.2
6,QNTT,≤ 0.2
7,ISIA,≤ 0.2
8,PDDD,≤ 0.2
9,QLLE,≤ 0.2
10,HPNE,≤ 0.2
11,FACF,≤ 0.2
12,TRLF,≤ 0.2
13,TYGD,≤ 0.2
14,QQAD,≤ 0.2
15,PVHR,≤ 0.2
16,VTPM,≤ 0.2
17,ESYK,≤ 0.2
18,ALPH,≤ 0.2
19,LQTT,≤ 0.2
20,DMSG,≤ 0.2
21,QTKR,1.15
22,HHRK,≤ 0.2
23,GMVC,≤ 0.2
24,TEFL,≤ 0.2
25,HVWR,≤ 0.2

row,Variant,one-hybrid fitness for binding NBS DNA
1,QPTM,≤ 0.2
2,GRVR,≤ 0.2
3,NYPS,≤ 0.2
4,SHQC,≤ 0.2
5,SGHS,≤ 0.2
6,HALP,≤ 0.2
7,ELCI,≤ 0.2
8,RCGL,≤ 0.2
9,WMPT,≤ 0.2
10,FTSG,≤ 0.2
11,RSKT,0.618
12,LAPW,≤ 0.2
13,STWI,≤ 0.2
14,VGEL,≤ 0.2
15,QVFA,≤ 0.2
16,HFNG,≤ 0.2
17,YRSV,≤ 0.2
18,NYNH,≤ 0.2
19,SEHM,≤ 0.2
20,SHQR,≤ 0.2
